Each structure is given as a SMILES string. The source holds more than one record for some entries. The list is limited to them.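 How the source made its calls: active means a tumor-causing dose value with its tumor site reported for any sex and species group of a rodent or other animal cancer study; inconclusive means only studies judged inadequate by the national testing program; inactive means tested in at least one study, none positive.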 There may be further records. Values that stand side by side are repeated measurements across runs, samples, wells, individuals or studies. A tag in brackets gives the origin of a value. The letters are not those of the source and start again with each entry. Brackets with × give the number of equal values in this list.

A short description of this series: DSSTox (CPDBAS) Carcinogenic Potency Database Summary SingleCellCall Results. The note with it: animal chronic carcinogenicity bioassays, CPDB summary call. An excerpt: The Carcinogenic Potency Database (CPDB) is a unique and widely used international resource of the results of over 6500 chronic, long-term animal cancer tests on over 1500 chemical substances. The CPDB provides easy access to the bioassay literature, with qualitative and quantitative analyses of both positive and negative experiments that have been published over the past 50 years in the general literature and by the National Cancer Institute/National Toxicology Program. The CPDB standardizes the diverse literature of cancer bioassays that vary widely in protocol, histopathological examination and nomenclature, and in the published author's choices of what information to provide in their papers. Results are reported in the CPDB for tests in rats, mice, hamsters, dogs, and nonhuman primates, and are based on the most positive result among all experiments for each sex-species. The DSSTox CPDBAS (all species) file incorporates data from the CPDB Summary Tables for the full list of over 1500 chemical substances tested in at least one species. A summary SingleCellCall, based on experimental bioassay results of one or more species, is provided for the entire DSSTox CPDBAS file (see Source URL).
An assignment of categorical carcinogenic activity based on minimal evidence for or against activity. […] Associated TD50 values and tumor site details for the relevant species/sex experiment supporting this overall CPDBAS SingleSiteCall are provided in the full CPDBAS DSSTox file (see Comment) and the corresponding CPDBAS Species Bioassay in PubChem.
In the case of `CC(=O)OC1CC(C)OC(C)O1` (stereo not drawn), the outcome was “active [sample A] and inactive [sample B]”.

As for `CCCCOCCOCCOCc1cc2c(cc1CCC)OCO2`, the outcome was “active [sample A] and inactive [sample B]”.

For the compound `Cc1cccc(C)c1`, the outcome is “active; inactive [sample A] and inactive [sample B]”. The same measure for `C#C[C@]1(OC(C)=O)CC[C@H]2[C@@H]3CCC4=C[C@@H](OC(C)=O)CC[C@@H]4[C@H]3CC[C@@]21C`: “inactive [sample A] and inactive; active [sample B]”; for `S=C([S-])NCCNC(=S)[S-].[Zn+2]`: “inactive [sample A] and active [sample B]”. As for `C=CC(=C)Cl`, the outcome was “active; inactive [sample A] and inactive [sample B]”. The same measure for `CC(=O)O[C@]1(C(C)=O)CC[C@H]2[C@@H]3C=C(Cl)C4=CC(=O)CC[C@]4(C)[C@H]3CC[C@@]21C`: “inactive; active [sample A] and inactive [sample B]”; for `Brc1c(Br)c(Br)c(Oc2c(Br)c(Br)c(Br)c(Br)c2Br)c(Br)c1Br`: “active [sample A] and inactive [sample B]”. For `ClC1C(Cl)C(Cl)C(Cl)C(Cl)C1Cl` (stereo not drawn), the outcome was “active (3×) and active; inactive [separate samples]”. The same measure for `Oc1c(Cl)c(Cl)c(Cl)c(Cl)c1Cl`: “active [sample A] and active; inactive [sample B] and active; inactive [sample C]”.

Turning to `C#C[C@]1(O)CC[C@H]2[C@@H]3CCC4=C(CCC(=O)C4)[C@H]3CC[C@@]21C`, the outcome was “active [sample A] and inactive; active [sample B] and inactive [sample C]”.

In the case of `CNc1ccc(N(CCO)CCO)cc1[N+](=O)[O-]`, the outcome was “active; inactive [sample A] and active [sample B]”. With `CN(C)C(=S)SSC(=S)N(C)C`, the outcome is “inactive; active [sample A] and inactive [sample B]”.

Source of the values: PubChem BioAssay AID1189 (EPA DSSTox, 2008).
